The list shows a part of the results.
What was measured:
Test in all cases: glycan array binding signal (z-score within array); higher = stronger binding
Conditions in all cases: glycan notation: IUPAC condensed, linker removed
[1] = target: Neu5Ac(a2-6)Gal(b1-4)GlcNAc(b1-3)Gal(b1-4)GlcNAc(b1-3)[Neu5Ac(a2-6)Gal(b1-4)GlcNAc(b1-3)Gal(b1-4)GlcNAc(b1-6)]GalNAc
Procedure, shortened: (§1)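 The binding signal is a Z-score computed within each array. Data were drawn from 3228 arrays in the Consortium for Functional Glycomics database, restricted to those with a known protein sequence. Scores were averaged over arrays of the same protein sequence at different concentrations or buffers, and over linkers, and negative values can be taken as non-binding.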

[2] = target: Neu5Ac(a2-6)Gal(b1-4)GlcNAc(b1-3)Gal(b1-4)GlcNAc(b1-6)[Gal(b1-3)]GalNAc
Procedure, shortened: as §1

[3] = target: Neu5Ac(a2-6)Gal(b1-4)GlcNAc(b1-3)Gal(b1-4)[Fuc(a1-3)]GlcNAc(b1-3)Gal(b1-4)[Fuc(a1-3)]GlcNAc
Procedure, shortened: as §1

[4] = target: Neu5Ac(a2-6)Gal(b1-4)GlcNAc(b1-3)GalNAc
Procedure, shortened: as §1

[5] = target: Neu5Ac(a2-6)Gal(b1-4)GlcNAc(b1-3)[Neu5Ac(a2-6)Gal(b1-4)GlcNAc(b1-6)]GalNAc
Procedure, shortened: as §1

[6] = target: Neu5Ac(a2-6)Gal(b1-4)GlcNAc(b1-6)GalNAc
Procedure, shortened: as §1

[7] = target: Neu5Ac(a2-6)Gal(b1-4)GlcNAc(b1-6)[Gal(b1-3)GlcNAc(b1-3)]Gal(b1-4)Glc
Procedure, shortened: as §1

[8] = target: Neu5Ac(a2-6)Gal(b1-4)GlcNAc(b1-6)[Gal(b1-3)]GalNAc
Procedure, shortened: as §1

[9] = target: Neu5Ac(a2-6)Gal(b1-4)GlcNAc6S
Procedure, shortened: as §1

Neu5Ac(a2-6)GalNAc = target: Neu5Ac(a2-6)GalNAc
Procedure, shortened: as §1

[10] = target: Neu5Ac(a2-6)GalNAc(b1-4)GlcNAc
Procedure, shortened: as §1

[11] = target: Neu5Ac(a2-6)GalNAc(b1-4)GlcNAc6S
Procedure, shortened: as §1

[12] = target: Neu5Ac(a2-6)GlcNAc(b1-4)GlcNAc
Procedure, shortened: as §1

[13] = target: Neu5Ac(a2-6)GlcNAc(b1-4)GlcNAc(b1-4)GlcNAc
Procedure, shortened: as §1

Neu5Ac(a2-8)Neu5Ac = target: Neu5Ac(a2-8)Neu5Ac
Procedure, shortened: as §1

[14] = target: Neu5Ac(a2-8)Neu5Ac(a2-3)Gal(b1-3)GalNAc(b1-4)[Neu5Ac(a2-3)]Gal(b1-4)Glc
Procedure, shortened: as §1

[15] = target: Neu5Ac(a2-8)Neu5Ac(a2-3)Gal(b1-3)GalNAc(b1-4)[Neu5Ac(a2-8)Neu5Ac(a2-3)]Gal(b1-4)Glc
Procedure, shortened: as §1

[16] = target: Neu5Ac(a2-8)Neu5Ac(a2-3)Gal(b1-4)Glc
Procedure, shortened: as §1

[17] = target: Neu5Ac(a2-8)Neu5Ac(a2-3)Gal(b1-4)GlcNAc
Procedure, shortened: as §1

[18] = target: Neu5Ac(a2-8)Neu5Ac(a2-3)[Gal(b1-3)GalNAc(b1-4)]Gal(b1-4)Glc
Procedure, shortened: as §1

[19] = target: Neu5Ac(a2-8)Neu5Ac(a2-3)[GalNAc(b1-4)]Gal(b1-4)Glc
Procedure, shortened: as §1

[20] = target: Neu5Ac(a2-8)Neu5Ac(a2-8)Neu5Ac
Procedure, shortened: as §1

[21] = target: Neu5Ac(a2-8)Neu5Ac(a2-8)Neu5Ac(a2-3)Gal(b1-4)Glc
Procedure, shortened: as §1

[22] = target: Neu5Ac(a2-8)Neu5Ac(a2-8)Neu5Ac(a2-3)[Gal(b1-3)GalNAc(b1-4)]Gal(b1-4)Glc
Procedure, shortened: as §1

[23] = target: Neu5Ac(a2-8)Neu5Ac(a2-8)Neu5Ac(a2-3)[GalNAc(b1-4)]Gal(b1-4)Glc
Procedure, shortened: as §1

[24] = target: Neu5Ac(a2-8)Neu5Ac(a2-8)Neu5Ac(a2-8)Neu5Ac(a2-3)[GalNAc(b1-4)]Gal(b1-4)Glc
Procedure, shortened: as §1

[25] = target: Neu5Ac(a2-8)Neu5Gc(a2-3)Gal(b1-4)GlcNAc
Procedure, shortened: as §1

Neu5Ac(b1-6)GalNAc = target: Neu5Ac(b1-6)GalNAc
Procedure, shortened: as §1

[26] = target: Neu5Ac(b2-6)Gal(b1-4)GlcNAc
Procedure, shortened: as §1

Neu5Ac(b2-6)GalNAc = target: Neu5Ac(b2-6)GalNAc
Procedure, shortened: as §1

[27] = target: Neu5Ac9Ac(a2-3)Gal(b1-3)GlcNAc
Procedure, shortened: as §1

[28] = target: Neu5Ac9Ac(a2-3)Gal(b1-4)GlcNAc
Procedure, shortened: as §1

[29] = target: Neu5Ac9Ac(a2-6)Gal(b1-4)GlcNAc
Procedure, shortened: as §1

[30] = target: Neu5Gc(a2-3)Gal(b1-3)GlcNAc
Procedure, shortened: as §1

[31] = target: Neu5Gc(a2-3)Gal(b1-3)[Fuc(a1-4)]GlcNAc
Procedure, shortened: as §1

Neu5Gc(a2-3)Gal(b1-4)Glc = target: Neu5Gc(a2-3)Gal(b1-4)Glc
Procedure, shortened: as §1

[32] = target: Neu5Gc(a2-3)Gal(b1-4)GlcNAc
Procedure, shortened: as §1

[33] = target: Neu5Gc(a2-3)Gal(b1-4)GlcNAc(b1-3)Gal(b1-4)GlcNAc(b1-2)Man(a1-3)[Neu5Gc(a2-3)Gal(b1-4)GlcNAc(b1-3)Gal(b1-4)GlcNAc(b1-2)Man(a1-6)]Man(b1-4)GlcNAc(b1-4)GlcNAc
Procedure, shortened: as §1

[34] = target: Neu5Gc(a2-3)Gal(b1-4)[Fuc(a1-3)]GlcNAc
Procedure, shortened: as §1

[35] = target: Neu5Gc(a2-6)Gal(b1-4)GlcNAc
Procedure, shortened: as §1

Neu5Gc(a2-6)GalNAc = target: Neu5Gc(a2-6)GalNAc
Procedure, shortened: as §1

[36] = target: Neu5Gc(a2-8)Neu5Ac(a2-3)Gal(b1-4)GlcNAc
Procedure, shortened: as §1

[37] = target: Neu5Gc(a2-8)Neu5Gc(a2-3)Gal(b1-4)GlcNAc
Procedure, shortened: as §1

[38] = target: Neu5Gc(a2-8)Neu5Gc(a2-3)Gal(b1-4)GlcNAc(b1-3)Gal(b1-4)GlcNAc
Procedure, shortened: as §1

[39] = target: Neu5Gc(a2-8)Neu5Gc(a2-6)Gal(b1-4)GlcNAc
Procedure, shortened: as §1

[40] = target: Neu5Gc(b2-6)Gal(b1-4)GlcNAc
Procedure, shortened: as §1

B1: MAA (Maackia amurensis), P0DKL3 (protein)
chain: MATSNSKPTQVLLATFLTFFFLLLNNVNSSDELSFTINNFVPNEADLLFQGEASVSSTGVLQLTRVENGQPQKYSVGRALYAAPVRIWDNTTGSVASFSTSFTFVVKAPNPDITSDGLAFYLAPPDSQIPSGSVSKYLGLFNNSNSDSSNQIVAVELDTYFAHSYDPWDPNYRHIGIDVNGIESIKTVQWDWINGGVAFATITYLAPNKTLIASLVYPSNQTTFSVAASVDLKEILPEWVRVGFSAATGYPTEVETHDVLSWSFTSTLEANCDAATENNVHIARYTA
With B1 the “glycan array binding signal (z-score)” value [1] was 0.454, the “glycan array binding signal (z-score)” value [2] was -0.111 and the “glycan array binding signal (z-score)” value [3] was -0.161. The “glycan array binding signal (z-score)” value [4] was -0.241, the “glycan array binding signal (z-score)” value [5] was -0.245 and the “glycan array binding signal (z-score)” value [6] was -0.114. The “glycan array binding signal (z-score)” value [7] was -0.303, the “glycan array binding signal (z-score)” value [8] was -0.196 and the “glycan array binding signal (z-score)” value [9] was -0.254. For the same binder, the “glycan array binding signal (z-score)” value (Neu5Ac(a2-6)GalNAc) was -0.257, the “glycan array binding signal (z-score)” value [10] was -0.057 and the “glycan array binding signal (z-score)” value [11] was -0.269. For the same binder, the “glycan array binding signal (z-score)” value [12] was 0.105, the “glycan array binding signal (z-score)” value [13] was 0.131 and the “glycan array binding signal (z-score)” value (Neu5Ac(a2-8)Neu5Ac) was -0.169. For the same binder, the “glycan array binding signal (z-score)” value [14] was -0.296, the “glycan array binding signal (z-score)” value [15] was -0.282 and the “glycan array binding signal (z-score)” value [16] was 0.457. For the same binder, the “glycan array binding signal (z-score)” value [17] was 0.479, the “glycan array binding signal (z-score)” value [18] was -0.164 and the “glycan array binding signal (z-score)” value [19] was -0.288. The “glycan array binding signal (z-score)” value [20] was -0.226, the “glycan array binding signal (z-score)” value [21] was 0.292 and the “glycan array binding signal (z-score)” value [22] was -0.008. The “glycan array binding signal (z-score)” value [23] was -0.155, the “glycan array binding signal (z-score)” value [24] was -0.214 and the “glycan array binding signal (z-score)” value [25] was 0.778. The “glycan array binding signal (z-score)” value (Neu5Ac(b1-6)GalNAc) was -0.207, the “glycan array binding signal (z-score)” value [26] was -0.208 and the “glycan array binding signal (z-score)” value (Neu5Ac(b2-6)GalNAc) was -0.242. The “glycan array binding signal (z-score)” value [27] was -0.247, the “glycan array binding signal (z-score)” value [28] was 0.656 and the “glycan array binding signal (z-score)” value [29] was -0.28. The “glycan array binding signal (z-score)” value [30] was -0.199, the “glycan array binding signal (z-score)” value [31] was -0.23 and the “glycan array binding signal (z-score)” value (Neu5Gc(a2-3)Gal(b1-4)Glc) was 0.177. The “glycan array binding signal (z-score)” value [32] was 0.834, the “glycan array binding signal (z-score)” value [33] was 2.07 and the “glycan array binding signal (z-score)” value [34] was -0.216. The “glycan array binding signal (z-score)” value [35] was -0.169, the “glycan array binding signal (z-score)” value (Neu5Gc(a2-6)GalNAc) was -0.235 and the “glycan array binding signal (z-score)” value [36] was 0.454. The “glycan array binding signal (z-score)” value [37] was 0.744, the “glycan array binding signal (z-score)” value [38] was 1.13 and the “glycan array binding signal (z-score)” value [39] was -0.279. For the same binder, the “glycan array binding signal (z-score)” value [40] was -0.057.
